# Laboratory results as given in the supplement of paper PMC3334620.
# In all, about 33,000 sequences were measured (“E-score (-0.5 to 0.5)”: median about -0.041, highest 2% from about 0.37 on). Some of the results follow.
# Biological target: T1, Ecm22 (UniProt Q05958)
# T1 sequence: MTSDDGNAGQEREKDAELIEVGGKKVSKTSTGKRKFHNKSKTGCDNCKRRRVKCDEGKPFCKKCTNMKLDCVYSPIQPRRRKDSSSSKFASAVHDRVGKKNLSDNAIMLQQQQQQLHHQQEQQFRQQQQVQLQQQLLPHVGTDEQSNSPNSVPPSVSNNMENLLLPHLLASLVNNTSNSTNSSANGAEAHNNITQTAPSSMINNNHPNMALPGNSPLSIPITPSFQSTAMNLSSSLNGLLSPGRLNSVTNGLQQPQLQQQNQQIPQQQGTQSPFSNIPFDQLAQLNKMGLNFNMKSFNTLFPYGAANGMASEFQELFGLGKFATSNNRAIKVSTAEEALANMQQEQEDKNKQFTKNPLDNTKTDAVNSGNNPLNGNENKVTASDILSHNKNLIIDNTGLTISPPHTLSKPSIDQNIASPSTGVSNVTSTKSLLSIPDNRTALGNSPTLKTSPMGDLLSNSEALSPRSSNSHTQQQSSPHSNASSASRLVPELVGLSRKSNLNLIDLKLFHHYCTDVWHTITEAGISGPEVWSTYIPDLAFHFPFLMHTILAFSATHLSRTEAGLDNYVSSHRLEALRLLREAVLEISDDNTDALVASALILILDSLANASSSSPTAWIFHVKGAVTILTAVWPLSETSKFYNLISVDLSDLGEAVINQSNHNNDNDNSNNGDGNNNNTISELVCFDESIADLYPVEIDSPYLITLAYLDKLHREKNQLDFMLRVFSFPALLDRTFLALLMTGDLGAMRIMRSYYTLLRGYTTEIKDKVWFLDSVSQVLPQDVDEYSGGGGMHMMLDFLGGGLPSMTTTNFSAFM
# Assay: PBM E-score (8-mer binding enrichment) (E-score (-0.5 to 0.5)); higher = stronger / more preferred TF binding; most listed sequences are background and not binding sites
# Conditions: protein concentration: 200 nM; construct: GST-full length
# Procedure: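 Universal 'all 10-mer' protein binding microarrays (Agilent AMADID 015681) probed with GST-tagged S. cerevisiae TFs (full-length or DBD) made by in vitro transcription/translation (PURExpress), about 100-200 nM. Bound TF was detected with fluorescent anti-GST. Each ungapped 8-mer (which stands for itself and its reverse complement) is scored by the PBM enrichment score (E-score), a modified Wilcoxon-Mann-Whitney statistic from -0.5 to +0.5, computed with the Universal PBM Analysis Suite. Scale: above 0.35 generally sequence-specific binding.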
row,Sequence,PBM E-score
1,ATGGGAGA,-0.319
2,CTGTTTCA,-0.104
3,TAAACTTA,-0.0492
4,AGGCGCGG,-0.0439
5,GGAGAACC,-0.255
6,AAAATCGT,0.213
7,CAGAGCGC,-0.154
8,AGATCCAT,-0.0395
9,CATTGGGC,-0.153
10,ATCCTTCA,-0.0751
11,GACTTCAC,-0.121
12,GCGAGCGC,0.134
13,GCACTCAC,-0.182
14,GGCTTAAA,0.014
15,CTCTCAAA,0.0153
16,CCACGTTC,0.0325
17,ATAACAGC,-0.0009
18,TGAAGCCA,-0.0959
19,AAGCTGGT,-0.0493
20,ATTGCTTG,-0.176
21,GGTAAGGA,-0.19
22,CGTCCACC,-0.214
23,AAAACAAT,-0.114
24,GTCCAAGA,-0.278
25,TCACGCCA,0.0179

row,Sequence,PBM E-score
1,AATAATAA,0.0368
2,AAGTACCA,0.145
3,AGACTCCA,-0.203
4,TATAGGCA,-0.143
5,TAGTTGAA,0.0666
6,AATTAAAT,-0.222
7,CCATTTCC,-0.0754
8,CAGCCGAG,-0.00474
9,GCGTTTTA,0.178
10,CACGATAC,0.175
11,CCCAGCCC,-0.203
12,CCGCTAAA,0.122
13,AAGTATCG,-0.0609
14,GGATCCAA,-0.156
15,GGAACGTA,0.353
16,CGCGGAAG,-0.132
17,GCATTGCC,0.079
18,AATAACTC,-0.0973
19,ACCGGTGC,-0.166
20,AATAGTTC,0.0189
21,AGGCTAGG,-0.265
22,AAGGCGGT,0.0181
23,CGATCATC,0.122
24,TTGCACAA,-0.0659
25,AGCATGTG,-0.07

row,Sequence,PBM E-score
1,CATGATGA,-0.011
2,TACGCGAA,0.32
3,AGGTCTTG,-0.185
4,AAGGGGGA,-0.0884
5,ATTGTATA,0.112
6,CGGAGGAA,-0.0523
7,TGGCAACA,-0.201
8,AATCCAGT,-0.132
9,CAACAGGC,-0.174
10,TATTTCAA,0.0101
11,CCTTAGGA,-0.182
12,CGCCCAGA,-0.104
13,TGAGCGCA,-0.0381
14,AGGGCCCC,-0.151
15,AGGGGTCC,-0.204
16,ACCGTTTG,0.287
17,CCTGGCGA,-0.228
18,AAAGTTGC,-0.135
19,TACCGTCA,0.124
20,TAGCTCAA,-0.185
21,AGCGTGAC,-0.0426
22,CAGGAACC,-0.171
23,CTCTTCCC,-0.205
24,CACGTCAA,-0.201
25,AATTGGTC,0.0661

row,Sequence,PBM E-score
1,AGATCTAT,-0.047
2,ATATCCAT,0.114
3,ACGCCATG,-0.0499
4,AAGCTTGG,0.0237
5,CGCTGGTA,-0.192
6,AACCACCT,-0.195
7,AGGAGGAA,0.0606
8,ACCCAAGT,0.0144
9,AACGATCG,0.364
10,ATACTGGG,-0.125
11,AACTAGTC,-0.126
12,AATATTAA,0.214
13,AGCCTAAT,0.0266
14,AACAACGC,0.0745
15,CGGTCCAG,-0.0483
16,ATATATGA,0.041
17,CTTTCGTA,0.428
18,ACGCTAGG,-0.179
19,GACGTACC,0.223
20,GCCAGGCA,-0.183
21,GTATGATA,0.317
22,CACCCTTA,-0.101
23,ACGTCAAA,-0.013
24,GAAACTTC,0.113
25,CGGGTACC,-0.134

row,Sequence,PBM E-score
1,ATCCGTCC,-0.139
2,ATTTCCAC,-0.018
3,AGCTCTTG,-0.286
4,ATTAAAGG,-0.0141
5,ACGGCGGC,0.11
6,AGTGCTGA,-0.0779
7,ACGAACCG,0.368
8,CCCTTACC,-0.0523
9,CCAATGGG,-0.289
10,AGACCTTA,-0.079
11,TATAATAA,0.0844
12,AGATTACG,0.166
13,TTTCCAAA,-0.0323
14,GATTTTGA,0.126
15,CACGGCCG,0.0371
16,AATTTATG,0.186
17,AGGACGAC,-0.206
18,CATACGCA,0.216
19,GTTGATGA,-0.0828
20,CATTCTCA,-0.0253
21,TATATAAA,0.236
22,ACCTCACC,-0.0962
23,ACTCATGA,-0.0557
24,AGGCAAGA,-0.151
25,AAACTTAT,0.0652

row,Sequence,PBM E-score
1,CATCCGCA,-0.0231
2,CGACGACG,0.127
3,CTTTATTA,-0.177
4,TGGGTCAA,-0.255
5,GAGAGTTA,-0.123
6,CGAAAATA,0.151
7,ACTCGCGC,0.101
8,ATCTCTTC,0.0412
9,CCATTACC,-0.104
10,AGATCAGC,-0.106
11,CGCGACGA,0.244
12,CAAGCTAG,-0.0704
13,CAAACACA,-0.0009
14,AGAGTAGA,-0.105
15,AGGTCGCC,-0.21
16,CACGTTCC,0.201
17,CATCTAGC,-0.143
18,ACCGGTTC,-0.176
19,ATGAAGCG,-0.131
20,AGCTAACA,-0.248
21,AGGCCAAT,-0.0341
22,CCGTTAGG,-0.035
23,GAGAGGGA,-0.212
24,ATCCCTAC,-0.111
25,CAATAGAC,-0.163

row,Sequence,PBM E-score
1,ACATCCCA,-0.169
2,AAGGCGTG,-0.0012
3,GGCTTTGA,0.0523
4,CGACCCTC,0.123
5,AACTAAGG,-0.039
6,GACGCCCA,-0.165
7,AGGCGAAC,0.0808
8,CTAATAAA,-0.0877
9,GAGAAGCA,-0.132
10,TGTGAACA,0.0599
11,CGGGTCAA,0.0255
12,CACCTTAA,-0.103
13,GTGTTGGA,-0.253
14,TACGTAAA,0.291
15,GTCGACAC,0.18
16,CATCGTAC,0.458
17,AATTATGG,-0.231
18,CCAGCCCC,-0.184
19,TGGTCAAA,-0.00875
20,ATATTCAG,-0.0222
21,ATGAGTCA,-0.215
22,CCCACCAG,0.0147
